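Interpolation was linear, between the two tested concentrations surrounding the appropriate level; five concentrations were tested over 48 hours in 96-well plates. GI50 marks 50% less growth.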 Calls of active or inactive are those of the source. No stated cut-off is given here; in the data, active = GI50 up to about 1.1 µM and inactive = higher.
Test system: NCI-H322M
Assay: inhibition of tumour cell growth, NCI panel, 48 h

SMILES | GI50
O=NN(CCCl)C(=O)NC1CCSc2ccccc21 (stereo unspecified) | inactive: > 100 µM
OCCN(CO)CO | inactive: > 100 µM
Cc1c2cnccc2c(C)c2c1c1ccccc1n2CCOC(=O)c1ccccc1 | inactive: 9.14 µM
CCCc1cc(COC)c(C#N)c(O)n1 | inactive: > 100 µM
COCCCN(Cc1cc(OC)c(OC)c(OC)c1)C(=S)Nc1cccc(Cl)c1 | inactive: 26.1 µM
CCOc1ccccc1NC(=O)C1=C(C)NC(C)=C(C(=O)Nc2ccccc2OCC)C1c1cccc([N+](=O)[O-])c1 | inactive: 78.2 µM
C=CCn1c(-c2ccc(Cl)cc2Cl)cs/c1=N\c1c(C)n(C)n(-c2ccccc2)c1=O | inactive: 14.6 µM
NC1=NCC(CN2CCOCC2)O1 (stereo unspecified) | inactive: > 100 µM
CCCCCCCCCCCCCCCCP(=O)(OC)OC | inactive: 17.2 µM
COc1nc(NC2OC(COC(C)=O)C(OC(C)=O)C(OC(C)=O)C2OC(C)=O)c2c(OC(C)=O)cc(=O)oc2n1 (stereo unspecified) | inactive: > 100 µM
CCOC(=O)c1c(-c2ccccc2)nc2c(OC)nccn12 | inactive: > 100 µM
O=CC[C@H]1CCc2ccccc2C12CCC(=O)CC2 | inactive: > 100 µM
Cn1c2c(c3ccccc31)CCN1C(=O)CN(C(=O)C3CCCCC3)CC21 (stereo unspecified) | inactive: > 100 µM
Oc1c(Br)cc(/C=C/c2cccc(/C=C/c3cc(Br)c(O)c(Br)c3)n2)cc1Br | inactive: 13.9 µM
NCCCN(CCCN)CCc1cn(C(=O)c2ccccc2)cn1 | inactive: 13.1 µM
CCOC(=O)C(NC(=O)CC(C)C)(Nc1ccc(C(F)(F)F)cc1)C(F)(F)F (stereo unspecified) | inactive: > 100 µM
CCC(C)C(=O)OC1CC2(C)C(c3ccoc3)OC(=O)CC23OC2(C)OC34C(OC(=O)C(C)C)C3(O)C(OC(=O)C5(C)OC5C)C5(C)CC3(O)C(C)(C5CC(=O)OC)C14O2 (stereo unspecified) | inactive: > 100 µM
O=c1onc2n1-c1ccc(Cl)cc1C(=S)N1CSCC21 (stereo unspecified) | inactive: 42.7 µM
CSc1c(CC(=O)O)n(Cc2ccccc2)c2ccccc12 | inactive: > 100 µM
COc1ccc(C2COc3c(ccc(OC)c3OC)C2=O)cc1OC (stereo unspecified) | inactive: > 100 µM
COc1ccc(/N=N/c2c(C)c(C#N)c(=S)n(C3OC(COC(C)=O)C(OC(C)=O)C(OC(C)=O)C3OC(C)=O)c2-c2ccccc2)cc1 (stereo unspecified) | inactive: 12.9 µM
CN(CCc1ccccn1)C(=S)N/N=C/c1ccccn1 | active: 0.0559 µM

SMILES | GI50
NC12c3c4cccc3Oc3cccc(c31)Oc1cccc(c12)O4 | inactive: > 50 µM
COc1ccc(C2NC3=C(CCCC3)N2)cc1 | inactive: > 100 µM
CN(C)c1nc(N(C)c2ccccc2)[s+]s1 | inactive: > 100 µM
CC1CC/C(=C\c2ccc(N(C)C)cc2)C(=O)/C1=C/c1ccc(N(C)C)cc1 (stereo unspecified) | inactive: > 100 µM
CCN(CCO)CCNc1ccc(C)c2sc3ccccc3c(=O)c12 | inactive: 4.86 µM
CC(C)(C)n1c(=O)[nH]c(=O)n1C(C)(C)C | inactive: > 100 µM
Nc1ncnc2c1ncn2C1OC(CO)C(O)C1NS(=O)(=O)c1ccccc1 (stereo unspecified) | inactive: > 100 µM
O=C1CC(C(O)(C(F)(F)F)C(F)(F)Cl)CCC1C(O)(C(F)(F)F)C(F)(F)Cl (stereo unspecified) | inactive: > 10 µM
Cc1ccc(C)c(NC(=O)C(=O)C2C(=O)C3=C(CC2(C)C)Nc2ccccc2S3)c1 (stereo unspecified) | inactive: > 100 µM
COc1ccc2c(c1)CCC(CN1CCN(CCOC(c3ccc(F)cc3)c3ccc(F)cc3)CC1)C2O (stereo unspecified) | inactive: 15.6 µM
CCN(CC)CCCC(C)Nc1c2cc(OC)cc(C)c2nc2c(C)c(Cl)ccc12 (stereo unspecified) | inactive: 1.58 µM
O=c1cc(-c2ccccc2)oc2cc(OCCCCCCCCCCOc3ccc4c(=O)cc(-c5ccccc5)oc4c3)ccc12 | inactive: > 100 µM
[O-][S+]1c2ccccc2N=C(c2cccs2)CC1c1ccccc1O (stereo unspecified) | inactive: > 100 µM
CCCCC1(C2c3ccccc3Oc3ccccc32)C(=O)N(c2ccccc2)N(c2ccccc2)C1=O | inactive: > 88.9 µM
CCOC(=O)c1c(Nc2ccccc2)sc2cccnc12 | inactive: 3.59 µM
NC1CC(N)c2c(Br)sc(Br)c21 (stereo unspecified) | inactive: > 100 µM
COc1cc2c(cc1OC)C(=O)/C(=C/c1ccc(Cl)cc1)CC2 | inactive: > 10 µM
CN(C)C(=O)/C=C/c1c[nH]c(=O)[nH]c1=O | inactive: > 500 µM
COc1ccccc1NC(=S)N/N=C/c1ccccn1 | active: 0.392 µM
CCOC(=O)c1ccc2nc3n(c2c1)C(c1c(F)cccc1F)SC3 (stereo unspecified) | inactive: > 100 µM
O=c1[nH]cnc2c(C3OC(CO)C(O)C3O)c[nH]c12 (stereo unspecified) | inactive: > 100 µM
C=CN(C=C)C(=O)Cn1cc(-c2ccccc2)nn1 | inactive: > 100 µM

SMILES | GI50
Cc1ccc(S(=O)(=O)n2cc(C#N)c(C#N)c2)cc1 | inactive: 44.4 µM
CC1=NN(C(=O)Nc2ccc(Cl)cc2)C(=O)C2CCC(=O)N12 (stereo unspecified) | inactive: > 100 µM
CCN(CCCOc1ccccc1)CCN(CC)CCCOc1ccccc1 | inactive: 15.6 µM
O=C(CSc1nc(-c2ccccc2)c(-c2ccccc2)[nH]1)NNC(=S)Nc1ccccc1 | inactive: 89.1 µM
CCC(Oc1ccc(OC)c2ccccc(=O)c12)C(=O)O (stereo unspecified) | inactive: > 100 µM
CC1=C[C@H]2c3c([nH]c4ccccc34)C(c3c[nH]c4ccccc34)[C@H]2CC1 (stereo partly specified) | inactive: 10.8 µM
COc1cc(NCc2ccc3nc(N)nc(N)c3c2C)cc(OC)c1OC | active: 0.538 µM
CCCCCCCCCCC(C(=O)O)C1(C(=O)O)CCC(=O)O1 (stereo unspecified) | inactive: > 100 µM
Cc1cc(N(CCC#N)CCC#N)ccc1C(/N=N/c1ccc(Cl)cc1)=N\NC(=O)c1cc(Cl)ccc1O | inactive: > 100 µM
CN1CC[C@]2(c3cccc(O)c3)CC(=O)/C(=C/c3ccc(Cl)c(Cl)c3)[C@@H]1C2 | inactive: 1.77 µM
CS/C(=N\C#N)NC1CC(n2cc(C)c(=O)[nH]c2=O)OC1CO (stereo unspecified) | inactive: > 100 µM
Clc1cc2nn(C3CCCCO3)nc2cc1Cl (stereo unspecified) | inactive: > 100 µM
CC(C)[Si](OC12CCC(CC1O)CC2CO)(C(C)C)C(C)C (stereo unspecified) | inactive: 13.2 µM
COc1ccc(C2[C@H]3C(=O)N(c4ccc(Cc5ccc(N6C(=O)[C@@H]7ON(c8ccccc8)C(c8ccc(OC)cc8)[C@@H]7C6=O)cc5)cc4)C(=O)[C@H]3ON2c2ccccc2)cc1 (stereo partly specified) | inactive: > 100 µM
CN(CCC(=O)N1CC(CCl)c2ccc([N+](=O)[O-])cc21)CCC(=O)N1CC(CCl)c2ccc([N+](=O)[O-])cc21 (stereo unspecified) | inactive: 42.9 µM
COc1c(OC(C)=O)c(OC(C)=O)cc2c1-c1ccc(OC)c(=O)cc1C(NC(C)=O)CC2 (stereo unspecified) | active: 0.42 µM
C=CCO[C@H]1CC[C@@]2(C)C(CC[C@]3(C)C2CC=C2[C@@H]4[C@@H](C)C(C)CC[C@]4(C(=O)O)CCC23C)C1(C)C (stereo partly specified) | inactive: 17.3 µM
NC(CO)c1ccccc1 (stereo unspecified) | inactive: > 100 µM
COc1cc2c(c(OC)c1OC)-c1ccc(SC)c(=O)cc1[C@@H](NCc1ccc([N+](=O)[O-])cc1)CC2 | active: 0.00396 µM
CCCCCCCCCCCC[C@@H](O)[C@H]1CCC([C@H](O)CCCCC(=O)CCCCCCCC2=C[C@H](C)OC2=O)O1 (stereo partly specified) | inactive: > 14.3 µM
COc1cc(/C=C2\CC3C4CC[C@H]5C[C@@H](O)CC[C@]5(C)C4CC[C@]3(C)C2=O)cc(OC)c1OC (stereo partly specified) | inactive: 41.2 µM
Nc1cccc2c1C(=O)c1cccc(N)c1C2=O | inactive: > 100 µM

— ChEMBL document CHEMBL1201862, “PubChem BioAssay data set” (2004)
